The other results are listed elsewhere or left out. Single values of this set are uncertain. Values with irradiation are relative to irradiated vehicle.
What was measured:
A549-Dual [1] = assay: NF-kB reporter (SEAP) activity, viability-corrected, relative to vehicle (fold change vs vehicle); higher = more activation of STING-IRF / NF-kB immune response reporter
A549-Dual [2] = assay: ISRE reporter (Lucia luciferase) activity, viability-corrected, relative to vehicle (fold change vs vehicle); higher = more activation of STING-IRF / NF-kB immune response reporter
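For NF-kB reporter (SEAP) activity, viability-corrected, relative to vehicle in this document: viability correction based on the alamar blue assay, with concentrations leaving 10% survival or less dropped.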

SMILES | NF-kB reporter (A549-Dual [1]; 0.1 µM, irradiation: 8 Gy/4 fr) | NF-kB reporter (A549-Dual [1]; 0.1 µM, irradiation: none) | NF-kB reporter (A549-Dual [1]; 0.3 µM, irradiation: 8 Gy/4 fr) | NF-kB reporter (A549-Dual [1]; 0.3 µM, irradiation: none) | NF-kB reporter (A549-Dual [1]; 1 µM, irradiation: 8 Gy/4 fr) | NF-kB reporter (A549-Dual [1]; 1 µM, irradiation: none) | NF-kB reporter (A549-Dual [1]; 3 µM, irradiation: 8 Gy/4 fr) | NF-kB reporter (A549-Dual [1]; 3 µM, irradiation: none) | NF-kB reporter (A549-Dual [1]; 10 µM, irradiation: 8 Gy/4 fr) | NF-kB reporter (A549-Dual [1]; 10 µM, irradiation: none) | ISRE reporter (A549-Dual [2]; 0.1 µM, irradiation: 8 Gy/4 fr) | ISRE reporter (A549-Dual [2]; 0.1 µM, irradiation: none) | ISRE reporter (A549-Dual [2]; 0.3 µM, irradiation: 8 Gy/4 fr) | ISRE reporter (A549-Dual [2]; 0.3 µM, irradiation: none) | ISRE reporter (A549-Dual [2]; 1 µM, irradiation: 8 Gy/4 fr) | ISRE reporter (A549-Dual [2]; 1 µM, irradiation: none) | ISRE reporter (A549-Dual [2]; 3 µM, irradiation: 8 Gy/4 fr) | ISRE reporter (A549-Dual [2]; 3 µM, irradiation: none) | ISRE reporter (A549-Dual [2]; 10 µM, irradiation: 8 Gy/4 fr) | ISRE reporter (A549-Dual [2]; 10 µM, irradiation: none)
Cc1cncc(CN2CCC(=C3c4ccc(Cl)cc4CCc4cccnc43)CC2)c1.O=C(O)/C=C/C(=O)O [Rupatadine Fumarate] | 0.934 | 1.17 | 0.803 | 1.1 | 0.706 | 0.763 | 0.593 | 0.826 | 0.48 | 0.809 | 0.79 | 0.792 | 0.68 | 0.741 | 0.571 | 0.939 | 0.516 | 0.914 | 0.285 | 0.855
COc1cc(C2c3cc4c(cc3C(OC3OC5COC(c6cccs6)OC5C(O)C3O)C3COC(=O)C23)OCO4)cc(OC)c1O (stereo not given) [Teniposide] | 0.671 | 1.34 | 0.764 | 1.36 | 0.684 | 1.57 | 0.903 | 1.58 | 1.08 | 1.68 | 0.402 | 2.51 | 0.467 | 2.6 | 0.421 | 3.11 | 0.317 | 1.8 | 0.406 | 1.86
CNC1CCC(c2ccc(Cl)c(Cl)c2)c2ccccc21.Cl (stereo not given) [Sertraline HCl] | 0.944 | 0.857 | 1.12 | 0.889 | 1.03 | 0.851 | 1.37 | 0.801 | 0.67 | 0.734 | 1.01 | 0.819 | 0.977 | 0.931 | 0.905 | 0.932 | 1.01 | 1.02 | 0.677 | 2.18
CC(=O)Oc1cccc2c1C(=O)c1c(OC(C)=O)cc(C(=O)O)cc1C2=O [Diacerein] | 1.23 | 0.873 | 0.916 | 0.825 | 1.27 | 0.846 | 1.1 | 0.854 | 0.956 | 0.983 | 1.05 | 0.677 | 0.839 | 0.606 | 0.747 | 0.762 | 0.762 | 0.834 | 0.852 | 0.865
COc1cc2nccc(Oc3ccc(NC(=O)C4(C(=O)Nc5ccc(F)cc5)CC4)cc3)c2cc1OC | 0.913 | 0.972 | 0.962 | 1.08 | 0.897 | 0.904 | 0.921 | 1.07 | 1.02 | 1.38 | 0.975 | 0.944 | 0.926 | 1.1 | 0.876 | 1.21 | 0.883 | 1.56 | 1.01 | 2.24
O=C([O-])CC(O)(CC(=O)[O-])C(=O)[O-].O=C([O-])CC(O)(CC(=O)[O-])C(=O)[O-].[BiH6+3].[K+].[K+].[K+] [Gastrodenol] | 1.68 | 1.47 | 1.64 | 1.29 | 1.27 | 1.39 | 1.57 | 1.31 | 1.72 | 1.2 | 1.22 | 1.1 | 1.18 | 0.913 | 0.974 | 1.27 | 1.22 | 1.13 | 1.29 | 0.94
COc1ccc(C2OCC3C(c4cc(OC)c(OC)c(OC)c4)OCC23)cc1OC (stereo not given) [Magnolin] | 0.937 | 0.839 | 0.923 | 0.695 | 0.877 | 0.737 | 1.05 | 0.789 | 0.714 | 0.83 | 0.96 | 0.748 | 0.798 | 0.55 | 0.711 | 0.609 | 0.738 | 0.753 | 0.631 | 0.702
COC1CC2CCC(C)C(O)(O2)C(=O)C(=O)N2CCCCC2C(=O)OC(C(C)CC2CCC(OC(=O)C(C)(CO)CO)C(OC)C2)CC(=O)C(C)/C=C(\C)C(O)C(OC)C(=O)C(C)CC(C)/C=C/C=C/C=C/1C (stereo not given) | 0.952 | 1.19 | 0.937 | 1.29 | 0.865 | 0.934 | 0.924 | 0.972 | 1.18 | 0.778 | 0.611 | 1.24 | 0.697 | 1.18 | 0.628 | 1 | 0.597 | 1.05 | 0.531 | 1.06
CCOCc1nc2c(N)nc3ccccc3c2n1CC(C)(C)O [Resiquimod] | 1.08 | 1.65 | 1.03 | 1.58 | 1.35 | 1.24 | 1.76 | 1.31 | 1.27 | 1.22 | 1.09 | 1.59 | 0.979 | 1.43 | 1.27 | 1.17 | 1.02 | 1.14 | 1.5 | 1.09
COc1c2occc2cc2ccc(=O)oc12 [Methoxsalen] | 0.878 | 1.15 | 0.939 | 1.15 | 1.34 | 0.871 | 1.44 | 0.941 | 1.05 | 0.92 | 0.929 | 0.861 | 0.795 | 0.872 | 0.842 | 0.801 | 0.922 | 0.867 | 0.784 | 0.847
CN1C(=O)/C(=C2/C(=O)Nc3ccccc32)c2ccccc21 [Meisoindigo] | 1.01 | 1.24 | 0.795 | 1.03 | 0.875 | 1.01 | 0.773 | 0.985 | 0.792 | 1.08 | 0.842 | 0.805 | 0.457 | 0.456 | 0.396 | 0.45 | 0.306 | 0.275 | 0.333 | 0.4
CN(C)CCCOc1nn(Cc2ccccc2)c2ccccc12.Cl [Benzydamine HCl] | 1.34 | 0.95 | 1.1 | 0.651 | 1.29 | 1.2 | 1.13 | 0.842 | 0.968 | 0.866 | 1.06 | 0.701 | 0.96 | 0.632 | 0.758 | 0.916 | 0.857 | 0.963 | 0.965 | 1.25
CCc1cc(/C(C)=N/OCc2ccc(C3CCCCC3)c(C(F)(F)F)c2)ccc1CN1CC(C(=O)O)C1 [BAF312 (Siponimod)] | 0.925 | 0.586 | 0.901 | 0.615 | 0.931 | 0.467 | 0.535 | 0.863 | 0.34 | 0.785 | 0.952 | 0.957 | 0.888 | 1.07 | 1 | 0.71 | 0.754 | 1.12 | 0.398 | 0.801
CN1C(C(=O)Nc2ccccn2)=C(O)c2sccc2S1(=O)=O [Tenoxicam] | 0.936 | 1.55 | 1.09 | 1.79 | 1.07 | 1.2 | 1.53 | 1.18 | 1.09 | 0.952 | 1.04 | 1.08 | 1.03 | 1.29 | 0.665 | 0.997 | 0.98 | 1.23 | 1.15 | 0.955
CN(C)C/C=C/C(=O)Nc1cc2c(Nc3ccc(F)c(Cl)c3)ncnc2cc1OC1CCOC1.O=C(O)/C=C\C(=O)O.O=C(O)/C=C\C(=O)O (stereo not given) [Afatinib (BIBW2992) Dimaleate] | 0.875 | 1.01 | 0.697 | 1.36 | 0.901 | 1.81 | 0.674 | 1.24 | 0.71 | 0.98 | 0.969 | 0.969 | 0.724 | 0.892 | 0.818 | 0.919 | 0.855 | 0.795 | 0.753 | 0.656
Nc1c(CC(=O)[O-])cccc1C(=O)c1ccccc1.O.[Na+] [Amfenac Sodium Monohydrate] | 1.04 | 0.972 | 0.858 | 0.963 | 1.21 | 0.846 | 0.974 | 0.884 | 0.968 | 1.08 | 0.989 | 0.695 | 0.824 | 0.614 | 0.825 | 0.668 | 0.851 | 0.783 | 0.897 | 0.777
COC1OC2OC3(C)CCC4C(C)CCC(C1C)C24OO3 (stereo not given) [Artemether] | 0.979 | 1.07 | 1.07 | 1.05 | 0.985 | 1.5 | 0.985 | 1.23 | 1.03 | 1.21 | 1.01 | 1.33 | 1.09 | 1.22 | 1 | 1.2 | 1.21 | 1.12 | 1.15 | 1.32
CCC1=CC2CN(C1)Cc1c([nH]c3ccccc13)C(C(=O)OC)(c1cc3c(cc1OC)N(C)C1C(O)(C(=O)OC)C(OC(C)=O)C4(CC)C=CCN5CCC31C54)C2.O=C(O)C(O)C(O)C(=O)O.O=C(O)C(O)C(O)C(=O)O (stereo not given) [Vinorelbine Tartrate] | 1.15 | 2.66 | 0.877 | 2.88 | 0.824 | 2.97 | 0.925 | 2.12 | 0.704 | 1.94 | 0.278 | 2.11 | 0.104 | 1.33 | 0.132 | 1.05 | 0.102 | 0.668 | 0.1 | 0.738
O=C(O)c1ccccc1Nc1cccc(C(F)(F)F)c1 [Flufenamic acid] | 1.22 | 0.712 | 1.02 | 0.691 | 0.893 | 0.923 | 0.847 | 0.883 | 0.827 | 0.864 | 0.949 | 0.775 | 0.911 | 0.739 | 0.824 | 0.827 | 0.844 | 0.814 | 0.846 | 0.718
CCC(=O)OC1(C(=O)CCl)C(C)CC2C3CC(F)C4=CC(=O)C=CC4(C)C3(F)C(O)CC21C (stereo not given) [Halobetasol Propionate] | 0.981 | 0.838 | 1.1 | 0.637 | 1.03 | 0.699 | 0.944 | 0.76 | 0.524 | 1.11 | 0.0654 | 0.184 | 0.0657 | 0.216 | 0.0471 | 0.182 | 0.045 | 0.275 | 0.0587 | 0.282
NC(=O)NO [Hydroxyurea] | 0.917 | 0.937 | 0.924 | 0.975 | 0.811 | 0.976 | 1.01 | 0.834 | 0.904 | 0.897 | 1.14 | 0.937 | 1.07 | 1.02 | 0.876 | 0.967 | 1.03 | 0.846 | 1.02 | 0.917
CC(C)(C)OC(=O)NC1CCCCC/C=C\C2CC2(C(=O)NS(=O)(=O)C2CC2)NC(=O)C2CC(OC(=O)N3Cc4cccc(F)c4C3)CN2C1=O (stereo not given) [Danoprevir (ITMN-191)] | 0.885 | 1 | 1.07 | 1.22 | 1.24 | 0.885 | 1.21 | 0.944 | 0.905 | 0.892 | 0.921 | 0.761 | 0.818 | 0.871 | 0.844 | 0.787 | 0.782 | 0.824 | 0.863 | 0.873
CC#CC(=O)N1CCCC1c1nc(-c2ccc(C(=O)Nc3ccccn3)cc2)c2c(N)nccn12 (stereo not given) [Acalabrutinib (ACP-196)] | 0.885 | 0.898 | 0.829 | 0.874 | 0.905 | 1.02 | 1.04 | 0.998 | 0.951 | 0.842 | 0.933 | 1.13 | 0.939 | 0.883 | 0.976 | 0.737 | 0.945 | 0.782 | 0.867 | 0.674
Cc1cn(-c2cc(NC(=O)c3ccc(C)c(Nc4nccc(-c5cccnc5)n4)c3)cc(C(F)(F)F)c2)cn1 [Nilotinib (AMN-107)] | 0.805 | 0.93 | 0.865 | 1.05 | 0.763 | 0.935 | 0.86 | 0.772 | 0.992 | 0.843 | 0.849 | 1 | 0.906 | 1.11 | 0.757 | 0.929 | 0.767 | 0.823 | 0.805 | 0.78

From the supplement of paper PMC9174493
